Laboratory results published in article PMC10726135.
Some of the results follow. At the low end of the ranking the order means little. The protein was read in a cell extract, so binding may be indirect.

target: T1, HNF4alpha2 (COS-7 nuclear extract) (UniProt P41235); experiment: protein-binding microarray; conditions: COS-7 nuclear extract on double-stranded Agilent 4x180k PBM; binding buffer, salt, pH and temperature not given; high values mean tight binding; double strand, one strand shown; sequences stand for … in …GCCTAGGGAGATTAGAGTATCGGTCGA
T1 sequence: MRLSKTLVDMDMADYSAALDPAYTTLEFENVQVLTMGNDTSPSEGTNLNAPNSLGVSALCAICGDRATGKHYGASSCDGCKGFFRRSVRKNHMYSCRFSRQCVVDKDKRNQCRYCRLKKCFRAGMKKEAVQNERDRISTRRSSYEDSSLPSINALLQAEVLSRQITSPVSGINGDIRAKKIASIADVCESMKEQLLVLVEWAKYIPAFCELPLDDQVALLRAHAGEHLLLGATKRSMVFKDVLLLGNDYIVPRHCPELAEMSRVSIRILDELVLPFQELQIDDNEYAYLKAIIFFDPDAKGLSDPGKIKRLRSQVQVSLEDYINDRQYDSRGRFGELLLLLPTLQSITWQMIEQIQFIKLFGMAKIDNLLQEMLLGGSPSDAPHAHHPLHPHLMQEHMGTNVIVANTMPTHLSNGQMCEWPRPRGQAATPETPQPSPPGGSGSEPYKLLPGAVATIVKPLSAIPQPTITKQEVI

Sequence | binding signal (log2 normalized intensity)
GTTAGTGCTGCCTCTTCTGGGAAGAGTAGA | -1.04
CCAGGTAACTTTTGTCTCTGGAGGGATCAG | 0.327
TATCATCCACATATTTTCCCTATCTAGCCA | -1.16
CTTCTCTGGGAGAAAGGGAGGCAGGTGAGC | -1.07
CAAGAATGCAAAGCCCTGGCTGACCTTTAG | 5.13
TGAGCCCAATCTAGCAAAAATCCTGCCAAA | -1.01
CAACAGGTGTTAAAATAACGACCTTTGGGC | 5.79
TATCTGTCCATCCCTCACTCCTGTCTTACC | 0.343
AGGTCACAGTAGGGAAAGTGGGGGGAAAGA | -0.786
TGACAACTGAATGTGACCTTTTGGACCACA | 6.82
CACTGGCTCTGGGGTCAAAGTCCCCTGAGC | 7.16
CTTTGCTCTCCCTCCTCTCTGAGCAGTCAA | -1.16
CTGCAACCTGAGTGCCAGAGCTGTGAAGAC | -1.2
AAGATGTACCATTCATGGACAGCCTTGCCA | -0.874
GGAGCACCACGGTTTATTTTTATCTGTTTA | 1.34
ATAAAGGGTGAGTGCATGAATCAACTGTTG | 0.225
TTGAAAGTTTGGTGGACTTTGGCCGTGAAG | 6.79
CCCTGTCTCTCAGTCTCTGTGGGAGAGTAA | 1.64
CCCATTTTATGGGCTAACGCTGCTGTCTGT | 0.472
GCCCTGGTCTCTGCTACCTGTAGCTGAGGG | -0.991
TTGCAAAGCAACTCCTCTGTACAGCTCTTG | -0.648
CCCAGAGCGGCAGCGCCTCCCGGTCACTAC | -1.08
TCTTTGCCCCATAACCACCATTAGACTCTG | 2.49
CCTTAGGCGAATGTCAAAGGTCTTTGGTGG | 2.44
TGAGCTGCTTTGGGTGGATTTGGAGATCAG | 0.943

Sequence | binding signal (log2 normalized intensity)
CAACACTTAGGGTGGATACTTTGACTGAGA | -0.657
GGCTCACAGAGAGGCTTCTGGCCAGGCAGA | -1.1
GTTATCTCTGCTGATAGCATAAAGCTAGGA | -1.13
AGAGGAAGATATTATCTCTGTCTGTCAAGG | 1.2
GATCAAAGGTTGGTTTTTGGAGACAGGAGT | 2.96
TAGCATGAACTACACAGATTCTGCAAACCT | -1.31
AGTATTTATTGAGCACTTTTGGTATGCAAG | 0.973
AAGCAGAGGTGACCCTTGCACTCATACTTG | 4.5
TTTGGGCTCATCCATTTTCCTCTGAAAATC | -1.05
TACCCAAGCCCCAAATCTAGCATCAGTGAG | 0.61
CACATACAGAATCCTTTACCTCCACCTCCA | 0.923
TATGCCTCTGTGACCTATAATCAGATGTAC | 1.77
CAAGCTGGCTGGCTTTAGAGTTGTAGCTCT | -1.08
TTGCCCCCGGGCACAGGGTTGAGTGGTGAC | 2.71
TCTGTAGTTTTCGTTGTCTAATCCTTCAAA | 1.03
GAGGAAGACATCATATTTGTTATATTTGTT | 1.43
GACCTTTCACCCGCGCCCAGCGGTTCCGGG | 3.05
GGCACACACGCATGGCCGGCAGCAGCCTTG | -1.16
AGAAAGTGGCCGGACAGGTTGGGTCTGAAG | 0.00742
TAGATGTCCCAGTAGATAACTTCAAGGAGC | -0.484
GGCCTATAATTAGGTCTTTTGGTGAGTCTT | 1.52
CAAACTGCTGAAGATAAGACTTCCTCAGAT | -1.06
AGTCCAGAGTCTGACAGAACTAAGCTGTTG | -1.13
GGTAATCACCCTCTCCACCCCCATGCAAGT | 5.21
CGGACCAGAGCCTGCCCCCGGGGCCGCCTT | -1.15

Sequence | binding signal (log2 normalized intensity)
GCCTCCTGCCCCAGGAGCAGGATAGAAGGA | -1.1
GTTTGCTTTTCCTTATCATCACATGTGCAA | 1.44
AAAGGTGAGAGAGCATCCAGATAAAGCTGA | -1.12
TTCAGATATTCCTGGAATGACAAGAATTGG | 0.202
AAATCAACAAATAAATAAGAAGCCTTATCA | -1.09
TGGCCAAAGTTCAGTAAATCTTAGAGAACA | 1.8
TAAACCTGTTTGGTATCTACTCGGCAAAAC | 0.0275
TTGTGAGTCCAAAGGTCAGCCGGGGAAGGT | 6.71
CCTTGAGTTTGAACTTTGACTTATTTAGTA | 4.99
CCTTGGATCTCCTGCACCTGAACTTTGCTC | 6.35
AAGTGGAATGCGCTTTCATGAGATGAAAGC | -1.19
CAGCAGGGCACCGCCTCCACACCCCAGCCT | 3.03
GGGCCAAAAGCAGCCATTAAGAAGCAAGTG | -0.613
CCCAGCCTATTAACCCCAAATTCCTCATGC | 1.67
CCTTCAACTGATTAGATAAGGTTCACCCAC | 1.98
TGAGAGAGCTGCATTGCTTCTGAAGGCTTA | -1.25
TCTTCTCAGTGTTTTGGGTCCTACAGAACC | 0.349
ATTCATTCCCTAAGATTCTGGTCAAAGGTC | 7.3
GCCAGCTGGCCTCCTGCGGTCCGGACTCTG | 2.29
AGCTGGAATGAAACGGATGCAAAGGCTGAG | -1.04
CTGCATTCCTCAACTCTAGGAGCATGTCAA | -0.667
GAGGGAGAGTGGCCTTTGGAATCAAACAGA | 2.22
TTCATTTAGACATGTTTACTTTTGCAAGGT | 2.06
CATGCCACACATTGCTGCCATAACTCAAAA | -1
GTGAGGCCAAAAGGTGCTACCACGAGAGTA | -0.936

Sequence | binding signal (log2 normalized intensity)
CTCCGGCCGGGAAGATGCCAGCCCCGAGAT | 3.78
ATGCACGGAAGCCTTCCCCGCCCGCAGCCC | 4.08
AGGATCAAGGGTGGATATTGGGAGGCCCAT | -1.26
GGGGCCAGTGTCATTTACAGAATTTCTCAG | -1.14
CAGCAAGGCCCAGGGCAAGGACTCTAAAGG | -1.11
GTGCATGGAGTGCACTGTGATCTTTAGAAA | 2.17
CGCTAGAGCAAATACAGCACTCAAATGATC | -1.25
GAGCAAACACCAAGGGCAGAGTCCTGGGGA | -1.1
CTCAACAAATATTAGCTGTTGGCTCCAGAG | -1.08
AGGGGAGATAATGCCAGAAAGGTCTAAAAG | -1.22
CAGATCCCTCTGGTGCTGATGTGTTCGCCC | 1.69
TTCCCAAGTGCTAGCTTGGTCTGAACCTCA | 1.34
CCCAAGTGGCCATCTTCACGCAATACTAGC | -0.981
ATGTCCTCAGTACACTGCCTCCTTCAAGGA | -0.775
AAAGTCAACGGCTCTGCATATGCCAACAGG | -1.08
TATCATCTGATCCTTGTACCTGCGACTGAG | 1.59
ACTGATAGTCTCCTATCAAGAAAATAGAAG | -1.14
GCTTTTGGAAGGACTTCGAATGGTATGCTA | 0.461
CAGTGAGATTAGGAAGTGTGCACAAGTCCT | -0.978
ACTAAAACCTGCTGCAGGAGAGATGGTCAG | 0.5
AAGGATAAATACTTCTCCTCTTATCTTCAG | -1.06
GCTGAAAGCTCCAAGTTTATAATCCTAGCT | -0.946
TTGTTGTTAGAACAAAGTCCAAATTCCTAA | 3.89
CAGTTATCATTTCTACAGGGTCAAGCAAAC | 1.83
AGGAGTGGACTGTTCAAGACCAAAGGTCAT | 5.65

Sequence | binding signal (log2 normalized intensity)
TAGGCTTGGAGCCTTGTAAAATGTACATGG | 0.436
TCCCTGCCCACATCCATTTTCTATCCTACT | -0.91
CTGGCTTGGAAAAAGCAGGCAACCAAGGGT | -1.07
TATCTTCCAGACCTTCTTAAAAAGTGTTGA | 1.12
TTTGCCTTAGGCCATTGTCCTTTGGGCTCA | 1.06
CTAGAACAGCTCCTTTGAAGCTTCGAGCCT | -1.19
ATGTCCCTACCACATACAGAATCCTTTACC | -0.474
TGCCCAAAAGGACACAGGGTCTGTTTTCAA | -0.994
TTTGTTAACAGCTTCTGTTCGCAGACCTGC | -1.01
GTCCTCCACAGCGTTTTCCTCCAGCCTGTC | -0.193
TCAGAAGGGAGGTAGTCGCCCTCCGTCGTG | -0.634
TGTTGTCTAACATTTTTGACCTTCAGCATC | 5.15
GTAAAGATCTTGAGGCCCACAAGGAATTTC | -1.17
CCAGATGAGAGCAGAGGCTGGGGCCCTCTT | -1.07
GGACTTTGGTCTCATGGGCCTAAACATTCC | 4.39
TGAAGAGGCCAGGGGCACTCTCTGTTATCA | -1.18
TTAGGATGACCTTTAGATTCTTACAGGCAA | 3.63
ACGGGGGCCGCTCTCCCTCCAGGCCCCAGC | -1.1
ACTGTCATGGATGACCTCTTTTAGTAACTG | 1.45
TGGTGTTGAAGCTCTGGTTCAAACAAGGCC | -0.203
ATATCTGCCTCAGTAGTAGTGAAAAATGAA | 0.796
TTTCATTCCACTGACTTGCAACCTTTGCCC | 6.76
AATTTCAGAGGGAAGAGGAAGCATCCTATA | -1.24
CAAAGGTCATAATTTGATCCAGTGTGCAAA | 3.35
CCTTTGAGAGTCAACACTGAAATAGCATAC | -1.1

Sequence | binding signal (log2 normalized intensity)
TGAGTTCCACAGATAAGGAGGAGACAGACT | -0.871
AAGAGATAAGGGTGGCCATCCATCCTGGCG | -1.03
AGCAGACCCCTACTGGGGATGGACTTTGGC | 6.08
ACATTCCATGAGCTGGCCTCACTAAGTCCT | -0.959
CTTGGAGGACCTTGGGTTCATTTTACAATG | 1.95
CAGAATGAACAGCTCTTCTTGCCAGCTGGC | -1.28
TATAGAAAAGGAAAGTGAGGCCTGGCCGAG | -0.954
GGGAGTGCAGAGAGAGAGGGAGACAACCTT | -1.09
CTGACGCAACAGAAAACTCAACTTCTAACT | -1.23
GCACAGGGAATGGCTCGTATGAATGTGGGA | 0.0605
CCCTCAGGGTTTAGGCCTGGGACCTTTCCA | 1.33
GAGCTTCAGACGCCCTATGGCGTCCGCCTC | -1.2
TGCCTCTGAGCTAAGATAACCATCAAATCC | -1.06
TCTTTCAGTGTTGACCTTTGAACATTTCTT | 8.04
TTCTGCATGTCATAGTTGACATTCCATCAT | 0.607
CCCTGCCTGACCTGCCCTTTGTCCCTCCTG | 4.51
CTGGAATGTTTCAAGTGGCCTGATTTGACA | 1.08
AGAGCAAGGGTCAAGGGTCATTTGTTTTTA | 5.91
GCCACTGTGTGTGTGTGTGTGTCTGTGTGT | 3.29
CACTGCACCTGCCTGAACAAGTCCAGTGAC | -0.89
